# In the supplement of paper PMC8728848:
# This is one part of the list.
# B1: Cohesin-hDECTIN-1 (Homo sapiens) (protein)
# chain: LDITSHHHHHHDDLDAVRIKVDTVNAKPGDTVRIPVRFSGIPSKGIANCDFVYSYDPNVLEIIEIEPGDIIVDPNPDKSFDTAVYPDRKIIVFLFAEDSGTGAYAITKDGVFATIVAKVKEGAPNGLSVIKFVEVGGFANNDLVEQKTQFFDGGVNVGDTTEPATPTTPVTTPTTTDDLDAASSSPCPPNWIIYEKSCYLFSMSLNSWDGSKRQCWQLGSNLLKIDSSNELGFIVKQVSSQPDNSFWIGLSRPQTEVPWLWEDGSTFSSNLFQIRTTATQENPSPNCVWIHVSVIYDQLCSVPSYSICEKKFM
# How the values were obtained:
# Test in all cases: glycan array binding signal (z-score within array); higher = stronger binding
# Conditions in all cases: glycan notation: IUPAC condensed, linker removed
# [1] = molecular target: Neu5Ac(a2-6)Gal(b1-4)GlcNAc(b1-2)Man(a1-3)[Man(a1-6)]Man(b1-4)GlcNAc(b1-4)GlcNAc
# Procedure, shortened: (§1)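 The binding signal is a Z-score computed within each array and averaged over linkers. Arrays of the same protein sequence at different concentrations or buffers were also averaged together. Data originate from 3228 arrays in the Consortium for Functional Glycomics database, kept only where the protein sequence was available.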
# [2] = molecular target: Neu5Ac(a2-6)Gal(b1-4)GlcNAc(b1-2)Man(a1-3)[Neu5Ac(a2-3)Gal(b1-4)GlcNAc(b1-2)Man(a1-6)]Man(b1-4)GlcNAc(b1-4)GlcNAc
# Procedure, shortened: as §1
# [3] = molecular target: Neu5Ac(a2-6)Gal(b1-4)GlcNAc(b1-2)Man(a1-3)[Neu5Ac(a2-6)Gal(b1-4)GlcNAc(b1-2)Man(a1-6)]Man(b1-4)GlcNAc(b1-4)GlcNAc
# Procedure, shortened: as §1
# [4] = molecular target: Neu5Ac(a2-6)Gal(b1-4)GlcNAc(b1-2)Man(a1-3)[Neu5Ac(a2-6)Gal(b1-4)GlcNAc(b1-2)Man(a1-6)]Man(b1-4)GlcNAc(b1-4)[Fuc(a1-6)]GlcNAc
# Procedure, shortened: as §1
# [5] = molecular target: Neu5Ac(a2-6)Gal(b1-4)GlcNAc(b1-2)Man(a1-6)Man(b1-4)GlcNAc(b1-4)GlcNAc
# Procedure, shortened: as §1
# [6] = molecular target: Neu5Ac(a2-6)Gal(b1-4)GlcNAc(b1-2)Man(a1-6)[Gal(b1-4)GlcNAc(b1-2)Man(a1-3)]Man(b1-4)GlcNAc(b1-4)GlcNAc
# Procedure, shortened: as §1
# [7] = molecular target: Neu5Ac(a2-6)Gal(b1-4)GlcNAc(b1-2)Man(a1-6)[GlcNAc(b1-2)Man(a1-3)]Man(b1-4)GlcNAc(b1-4)GlcNAc
# Procedure, shortened: as §1
# [8] = molecular target: Neu5Ac(a2-6)Gal(b1-4)GlcNAc(b1-2)Man(a1-6)[Man(a1-3)]Man(b1-4)GlcNAc(b1-4)GlcNAc
# Procedure, shortened: as §1
# [9] = molecular target: Neu5Ac(a2-6)Gal(b1-4)GlcNAc(b1-2)[Neu5Ac(a2-6)Gal(b1-4)GlcNAc(b1-4)]Man(a1-3)[GlcNAc(b1-4)][Neu5Ac(a2-6)Gal(b1-4)GlcNAc(b1-2)[Neu5Ac(a2-6)Gal(b1-4)GlcNAc(b1-6)]Man(a1-6)]Man(b1-4)GlcNAc(b1-4)GlcNAc
# Procedure, shortened: as §1
# [10] = molecular target: Neu5Ac(a2-6)Gal(b1-4)GlcNAc(b1-2)[Neu5Ac(a2-6)Gal(b1-4)GlcNAc(b1-4)]Man(a1-3)[GlcNAc(b1-4)][Neu5Ac(a2-6)Gal(b1-4)GlcNAc(b1-4)Man(a1-6)]Man(b1-4)GlcNAc(b1-4)GlcNAc
# Procedure, shortened: as §1
# [11] = molecular target: Neu5Ac(a2-6)Gal(b1-4)GlcNAc(b1-2)[Neu5Ac(a2-6)Gal(b1-4)GlcNAc(b1-6)]Man(a1-6)[Neu5Ac(a2-6)Gal(b1-4)GlcNAc(b1-2)Man(a1-3)][GlcNAc(b1-4)]Man(b1-4)GlcNAc(b1-4)GlcNAc
# Procedure, shortened: as §1
# [12] = molecular target: Neu5Ac(a2-6)Gal(b1-4)GlcNAc(b1-3)Gal(b1-3)GlcNAc
# Procedure, shortened: as §1
# [13] = molecular target: Neu5Ac(a2-6)Gal(b1-4)GlcNAc(b1-3)Gal(b1-4)GlcNAc
# Procedure, shortened: as §1
# [14] = molecular target: Neu5Ac(a2-6)Gal(b1-4)GlcNAc(b1-3)Gal(b1-4)GlcNAc(b1-2)Man(a1-3)[Neu5Ac(a2-6)Gal(b1-4)GlcNAc(b1-3)Gal(b1-4)GlcNAc(b1-2)Man(a1-6)]GalNAc
# Procedure, shortened: as §1
# [15] = molecular target: Neu5Ac(a2-6)Gal(b1-4)GlcNAc(b1-3)Gal(b1-4)GlcNAc(b1-3)Gal(b1-4)GlcNAc
# Procedure, shortened: as §1
# [16] = molecular target: Neu5Ac(a2-6)Gal(b1-4)GlcNAc(b1-3)Gal(b1-4)GlcNAc(b1-3)Gal(b1-4)GlcNAc(b1-2)Man(a1-3)[Neu5Ac(a2-6)Gal(b1-4)GlcNAc(b1-3)Gal(b1-4)GlcNAc(b1-3)Gal(b1-4)GlcNAc(b1-2)Man(a1-6)]GalNAc
# Procedure, shortened: as §1
# [17] = molecular target: Neu5Ac(a2-6)Gal(b1-4)GlcNAc(b1-3)Gal(b1-4)GlcNAc(b1-3)GalNAc
# Procedure, shortened: as §1
# [18] = molecular target: Neu5Ac(a2-6)Gal(b1-4)GlcNAc(b1-3)Gal(b1-4)GlcNAc(b1-3)[Neu5Ac(a2-6)Gal(b1-4)GlcNAc(b1-3)Gal(b1-4)GlcNAc(b1-6)]GalNAc
# Procedure, shortened: as §1
# [19] = molecular target: Neu5Ac(a2-6)Gal(b1-4)GlcNAc(b1-3)Gal(b1-4)GlcNAc(b1-6)[Gal(b1-3)]GalNAc
# Procedure, shortened: as §1
# [20] = molecular target: Neu5Ac(a2-6)Gal(b1-4)GlcNAc(b1-3)Gal(b1-4)[Fuc(a1-3)]GlcNAc(b1-3)Gal(b1-4)[Fuc(a1-3)]GlcNAc
# Procedure, shortened: as §1
# [21] = molecular target: Neu5Ac(a2-6)Gal(b1-4)GlcNAc(b1-3)GalNAc
# Procedure, shortened: as §1
# [22] = molecular target: Neu5Ac(a2-6)Gal(b1-4)GlcNAc(b1-3)[Neu5Ac(a2-6)Gal(b1-4)GlcNAc(b1-6)]GalNAc
# Procedure, shortened: as §1
# [23] = molecular target: Neu5Ac(a2-6)Gal(b1-4)GlcNAc(b1-6)GalNAc
# Procedure, shortened: as §1
# [24] = molecular target: Neu5Ac(a2-6)Gal(b1-4)GlcNAc(b1-6)[Gal(b1-3)GlcNAc(b1-3)]Gal(b1-4)Glc
# Procedure, shortened: as §1
# [25] = molecular target: Neu5Ac(a2-6)Gal(b1-4)GlcNAc(b1-6)[Gal(b1-3)]GalNAc
# Procedure, shortened: as §1
# [26] = molecular target: Neu5Ac(a2-6)Gal(b1-4)GlcNAc6S
# Procedure, shortened: as §1
# Neu5Ac(a2-6)GalNAc = molecular target: Neu5Ac(a2-6)GalNAc
# Procedure, shortened: as §1
# [27] = molecular target: Neu5Ac(a2-6)GalNAc(b1-4)GlcNAc
# Procedure, shortened: as §1
# [28] = molecular target: Neu5Ac(a2-6)GalNAc(b1-4)GlcNAc6S
# Procedure, shortened: as §1
# [29] = molecular target: Neu5Ac(a2-6)GlcNAc(b1-4)GlcNAc
# Procedure, shortened: as §1
# [30] = molecular target: Neu5Ac(a2-6)GlcNAc(b1-4)GlcNAc(b1-4)GlcNAc
# Procedure, shortened: as §1
binder,measurement,setting,value
B1,glycan array binding signal (z-score),[1],-0.526
same,glycan array binding signal (z-score),[2],-0.147
same,glycan array binding signal (z-score),[3],-0.476
same,glycan array binding signal (z-score),[4],0.007
same,glycan array binding signal (z-score),[5],-0.639
same,glycan array binding signal (z-score),[6],-0.561
same,glycan array binding signal (z-score),[7],-0.488
same,glycan array binding signal (z-score),[8],-0.648
same,glycan array binding signal (z-score),[9],1.06
same,glycan array binding signal (z-score),[10],0.743
same,glycan array binding signal (z-score),[11],-0.617
same,glycan array binding signal (z-score),[12],-0.26
same,glycan array binding signal (z-score),[13],-0.163
same,glycan array binding signal (z-score),[14],-0.284
same,glycan array binding signal (z-score),[15],-0.45
same,glycan array binding signal (z-score),[16],0.383
same,glycan array binding signal (z-score),[17],-0.203
same,glycan array binding signal (z-score),[18],-0.459
same,glycan array binding signal (z-score),[19],-0.582
same,glycan array binding signal (z-score),[20],-0.536
same,glycan array binding signal (z-score),[21],-0.215
same,glycan array binding signal (z-score),[22],-0.643
same,glycan array binding signal (z-score),[23],-0.507
same,glycan array binding signal (z-score),[24],-0.275
same,glycan array binding signal (z-score),[25],-0.417
same,glycan array binding signal (z-score),[26],-0.118
same,glycan array binding signal (z-score),Neu5Ac(a2-6)GalNAc,2.14
same,glycan array binding signal (z-score),[27],1.36
same,glycan array binding signal (z-score),[28],0.317
same,glycan array binding signal (z-score),[29],-0.518
same,glycan array binding signal (z-score),[30],-0.326
